Assay results taken from ChEMBL document CHEMBL4888484, “Replenishing the malaria drug discovery pipeline: Screening and hit evaluation of the MMV Hit Generation Library 1 (HGL1) against asexual blood stage Plasmodium falciparum ,using a nano luciferase reporter read-out” (2022).
Among all 150,000 compounds or so, about 540 (0.36%) showed an effect of 50% or more. Some of the results follow.

Each molecule was assayed on Plasmodium falciparum (assay: Primary screen in NF54 nanoGlo assay, in single point, at 2uM, 72h; a lower Z score goes with more inhibition). Conditions: timepoint 72 hour.
Assay type: functional, Erythrocyte

Structure (SMILES) | % Inhibition [%] | Z score
CN1CCN(C[C@H]2COc3ccccc3O2)CC1 | 4 | -0.76
COc1ccc(C2c3[nH]c4ccccc4c3C[C@H]3C(=O)N(c4ccccc4C(=O)NCCc4ccc(F)cc4)C(=O)N23)cc1 (stereo partly specified) | 20 | -3.69
CC(=O)NCC(=O)N1CCC[C@H](Oc2ccncc2)C1 | 7 | -0.96
CCc1ccc(C(=O)Nc2cnc(-n3cccn3)nc2)cc1 | -7 | 1.11
COc1ccc(C2N(c3ccccc3)OC3C(=O)N(c4ccc(C)cc4)C(=O)C32c2ccccc2)cc1 (stereo unspecified) | -3 | 0.44
CN(CCO)C(=O)Nc1ccc(C(F)(F)F)cc1Br | -17 | 1.94
CC(=O)N1CCc2cc(CNS(=O)(=O)c3ccc(Cl)s3)ccc21 | -15 | 1.88
Cc1[nH]cnc1CNC(=O)CCC(C)(C)C | -6 | 0.56
Cc1nnsc1CN(C)C(=O)c1ncn[nH]1 | -2 | 0.33
CN(CCN1CCCCC1=O)CCn1cc[nH]c1=O | -1 | 0.13
NC(=O)C1(O)CCN(C(=O)Cc2csc3ccccc23)CC1 | 5 | -0.65
Cc1ccc(F)c(CN2CCC3(CCNCC3)C2)c1Cl | 1 | -0.16
CC(O)C(C)(CNc1ncc(F)cn1)Cc1ccccc1 (stereo unspecified) | -5 | 0.83
COc1cccc(C2CN(C(=O)c3ccc(Cl)cc3)CC2C(=O)NCC2CC2)c1OC (stereo unspecified) | -9 | 0.87
Cc1cnc(C(=O)Nc2ccc3c(c2)OCCCO3)cn1 | -16 | 3.08
CCN(Cc1ccc(F)cc1)Cc1cc(=O)c2cccc(F)c2[nH]1 | -6 | 0.97
Cc1cccc(N(C)C(=O)[C@H]2CCn3ccnc3C2)c1 | -16 | 2.26
CCCCC(=O)N(Cc1ccccc1)C(C)C | -2 | 0.21
Cc1cccc(C(=O)N[C@H]2CCN(c3ncc[nH]c3=O)C2)c1F | 0 | 0.05
CC(=O)c1cccc(-n2cnnc2[C@H](C)n2cccn2)c1 | 10 | -1.12
CCC(C)C(NC(=O)OCc1ccccc1)C(=O)Nc1cc(C)ccn1 (stereo unspecified) | 1 | -0.27
CCN(CCOC(C)(C)C)CC(=O)Nc1ccc(NC(C)=O)cc1 | -24 | 2.84

Structure (SMILES) | % Inhibition [%] | Z score
Cc1c(C(=O)Nc2cc(C)n(-c3ccc(Cl)c(Cl)c3)n2)oc2ccccc12 | 11 | -1.48
COc1ccc(-c2ccc(C(=O)N[C@@]3(CO)CCOC3)c(F)c2)c(F)c1 | -4 | 0.61
CN(CCn1cccn1)C(=O)c1ccc(C#N)cn1 | 12 | -1.3
Cc1ccc(NC(=O)c2cnn(CCN(C)C)c2)cc1-c1ncco1 | -5 | 0.46
O=C(c1ccccc1NCCC1=CCCCC1)N1CC[C@@H](O)C1 | 2 | -0.27
CCN(C)C(=O)Nc1cc(Cl)cc(C(=O)OC)c1 | -19 | 3.67
CN(C)c1ccc(C(=O)N2CCNC[C@H]2C(F)F)nc1 | -3 | 0.34
NC(=O)C1CCN(C(=O)CN2CCN(Cc3ccc(Cl)cc3)C2=O)CC1 | -9 | 1.43
Cc1n[nH]c(C)c1CNC(=O)c1cscn1 | -12 | 1.55
Cc1ccc(NC(=O)N(CCN2CCOCC2)C2CCOCC2)cc1C | -2 | 0.38
Cn1c2c(c(=O)n3ncc(C(=O)Nc4ccc5c(c4)OCCO5)c13)CN(Cc1ccccc1)CC2 | 0 | 0.03
O=S(=O)(NC1CC1c1ccc(F)cc1)N1CCc2ccccc2C1 (stereo unspecified) | -3 | 0.37
Cc1nc(NCc2nc[nH]c2C)c2sccc2n1 | -5 | 0.47
O=C(c1ccon1)N1CCN(C(=O)c2ccco2)CC1 | 1 | -0.19
CCc1ccc2c(c1)[C@H]1OCCC[C@H]1C(c1ccncc1)N2 (stereo partly specified) | -4 | 0.69
COc1ccc(-c2noc(-c3ccc(NCCC(C)C)nn3)n2)cc1 | 25 | -2.88
CCN(CC)/C(C)=N\S(=O)(=O)c1ccc(Cl)cc1 | -16 | 2.1
CCNc1ncc(S(=O)(=O)N(C)CC(C)(C)O)cc1Cl | -2 | 0.2
Cc1cccc(CC(=O)N2CCc3[nH]nc(C(=O)N4CCc5ccccc5C4)c3C2)c1 | 3 | -0.29
Cc1ccncc1CC(=O)N(C[C@H]1CCCO1)c1ccc(Br)cc1 | 11 | -1.35
CC1(C)Cc2ccccc2/C(=C/C(=O)N2CCCCCC2)N1 | 0 | -0.06
